Out of some 310,000 compounds screened, about 2,200 (0.71%) showed an effect of 50% or more. Effects have a minus sign here. Some of the results follow.

Chain of human ether-à-go-go-related gene (hERG) potassium channel (Q12809 whole entry, looked up): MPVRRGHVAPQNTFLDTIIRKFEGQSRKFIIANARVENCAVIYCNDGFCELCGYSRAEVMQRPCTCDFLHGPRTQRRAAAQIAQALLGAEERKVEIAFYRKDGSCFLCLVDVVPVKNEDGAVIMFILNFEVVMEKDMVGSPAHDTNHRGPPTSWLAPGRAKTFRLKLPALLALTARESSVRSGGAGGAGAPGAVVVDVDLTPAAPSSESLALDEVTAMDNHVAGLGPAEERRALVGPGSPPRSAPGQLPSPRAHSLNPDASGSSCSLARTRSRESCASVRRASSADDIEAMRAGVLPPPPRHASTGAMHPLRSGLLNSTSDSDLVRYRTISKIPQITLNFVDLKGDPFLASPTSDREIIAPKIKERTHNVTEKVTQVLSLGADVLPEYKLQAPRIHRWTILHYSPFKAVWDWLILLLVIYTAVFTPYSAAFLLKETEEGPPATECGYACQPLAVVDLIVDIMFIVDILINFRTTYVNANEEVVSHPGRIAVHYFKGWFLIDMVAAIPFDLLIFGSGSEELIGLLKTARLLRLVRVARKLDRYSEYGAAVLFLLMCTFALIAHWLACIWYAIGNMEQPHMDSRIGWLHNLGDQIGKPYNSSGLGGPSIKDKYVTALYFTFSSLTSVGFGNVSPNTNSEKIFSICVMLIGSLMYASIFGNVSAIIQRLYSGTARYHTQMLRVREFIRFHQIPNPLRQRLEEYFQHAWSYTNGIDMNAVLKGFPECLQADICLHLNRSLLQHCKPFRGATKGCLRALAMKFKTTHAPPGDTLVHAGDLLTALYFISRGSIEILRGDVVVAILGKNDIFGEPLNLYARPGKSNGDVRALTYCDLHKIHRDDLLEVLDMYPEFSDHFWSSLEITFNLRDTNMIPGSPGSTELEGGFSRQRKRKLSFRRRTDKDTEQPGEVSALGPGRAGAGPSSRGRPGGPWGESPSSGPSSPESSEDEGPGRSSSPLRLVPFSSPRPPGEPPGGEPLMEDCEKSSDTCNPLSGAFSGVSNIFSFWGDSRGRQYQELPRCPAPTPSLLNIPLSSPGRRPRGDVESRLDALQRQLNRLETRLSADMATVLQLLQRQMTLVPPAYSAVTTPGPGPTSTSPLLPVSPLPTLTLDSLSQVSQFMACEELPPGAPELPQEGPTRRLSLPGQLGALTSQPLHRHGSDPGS

This test addresses human ether-à-go-go-related gene (hERG) potassium channel (human, UniProt Q12809). The test can be described thus: primary screen, population patch clamp on CHO cells stably expressing hERG.
On to `CN(C(=O)COC(=O)c1ccccc1NCc1ccco1)c1c(N)n(Cc2ccccc2)c(=O)[nH]c1=O`, for which the “hERG current change (%, negative = inhibition) at 1uM” value amounted to 7.67%.

Take `CC1CCC/C(=N\Nc2ccc(Cl)c(C(=O)O)c2)C1` (stereo not drawn): the “hERG current change (%, negative = inhibition) at 1uM” value stood at 6.37%. Under `CCN1C(=O)c2cccc3cccc1c23` stands 8.91%; under `Cc1ccc(-n2ncc(C(=O)N3CCN(C(=O)c4ccco4)CC3)c2C2CCN(C(=O)OC(C)(C)C)CC2)cc1C`, 11.2%; under `CCOCCCNC(=O)C(NC(=O)CNC(=O)c1ccccc1)c1ccc(C)cc1` (stereo not drawn), 6.64%. Next, `O=C(NC1CCCCC1)C(c1ccncc1)N(C(=O)c1csnn1)c1cccc(F)c1` (stereo not drawn): -11.4%; `Cn1c(-c2ccccc2[N+](=O)[O-])[n+](C)c2ccccc21.[Cl-]`: 12.9%; `COCCCN=C1NN=C(c2cc(C)n(Cc3ccco3)c2C)CS1.Cl`: -10.2%.

Turning to `CCCn1c(=N)c(S(=O)(=O)c2ccccc2)cc2c(=O)n3cccc(C)c3nc21`, the “hERG current change (%, negative = inhibition) at 1uM” value is given as 8.87%. On to `FC(F)(F)c1cccc(NC(=S)NCC(c2cccnc2)N2CCOCC2)c1` (stereo not drawn), for which the “hERG current change (%, negative = inhibition) at 1uM” value was found to be 9.47%. With `CCOc1ccc(NC(=O)c2cc(OC)nc3ccccc23)cc1`, the “hERG current change (%, negative = inhibition) at 1uM” value turned out to be 15.6%. Next, `CCOC(=O)CC(NC(=O)c1ccc(C)cc1)c1ccc(C)cc1` (stereo not drawn): 7.81%.

For `O=C(O)CCCSCC(=O)Nc1ccccc1`, the “hERG current change (%, negative = inhibition) at 1uM” value came to 11.8%. Next, `Cc1ccccc1Nc1nc(N)nc(COC(=O)c2cccc(S(=O)(=O)N(C)C)c2)n1`: 8.43%. Next, `CC(=O)/C(=N/Nc1cccc(Cl)c1)Sc1nnc(C(O)c2ccccc2)n1-c1ccccc1` (stereo not drawn): 9.37%. Next, `COc1cccc(Cc2n[nH]c(=S)n2Cc2ccco2)c1`: 12.1%. Regarding `COCCCNC(=O)/C=C1\Sc2ccccc2N(Cc2ccccc2F)C1=O`, the “hERG current change (%, negative = inhibition) at 1uM” value came to 11.8%. Next, `Cc1c(NC(=O)CSc2nnc(Nc3ccccc3)s2)c(=O)n(-c2ccccc2)n1C`: -26%. Under `O=C(NN1C(=O)/C(=C\c2cccnc2)SC1=S)C(c1ccccc1)c1ccccc1` stands -0.137%. Next, `O=C(NCCCN1CCCC1)Nc1ccccc1[N+](=O)[O-]`: 14.8%; `CC(C)(C)n1ncc2c(=O)n(CC(=O)NC3CCCCC3)cnc21`: 10.3%. Consider `CC(C)NC(=O)C(=O)NCc1ccccn1`, for which the “hERG current change (%, negative = inhibition) at 1uM” value was 9.57%. Next, `COc1ccccc1C1N(c2cc(Cl)ccc2OC)C(=O)C2CCCN21` (stereo not drawn): 7.88%; `COc1cc(-c2noc(-c3ccccc3C(=O)NCc3ccco3)n2)cc(OC)c1OC`: 11.7%. Next, `C/C(=N/NC(=O)c1nnn(-c2nonc2N)c1-c1ccccc1)c1ccncc1`: 14.6%; `CCOc1ncccc1C(=O)OCc1ccc([N+](=O)[O-])cc1`: -8.48%; `Cc1ccc(C)n1-c1ccsc1C(=O)CC#N`: 7.66%. Next, `Cc1ccc2nc(N3CCN(Cc4ccc(F)cc4)C3=O)c(C)cc2c1`: 3.51%; `COc1ccccc1NC(=O)CSc1nnnn1C1CCCCC1`: -1.21%. For the compound `Cc1cccc(NCN2C(=O)c3ccncc3C2=O)n1`, the “hERG current change (%, negative = inhibition) at 1uM” value worked out at 12.7%. Take `O=C(NCCc1c[nH]c2ccccc12)C1CCN(S(=O)(=O)c2ccc(F)cc2)CC1`: the “hERG current change (%, negative = inhibition) at 1uM” value was 2.23%. For `C#CCOCCOCCOCCNc1nc(N2CCN(C(=O)[C@H]([C@@H](C)O)n3cc(CCCC[NH3+])nn3)CC2)nc(N2CCN(C(=O)[C@H](Cc3ccc(O)cc3)n3cc(CCO)nn3)CC2)n1.[Cl-]`, the “hERG current change (%, negative = inhibition) at 1uM” value is recorded as 6.21%. Next, `CC(=O)n1c2c(c3ccccc31)OC(N)=C(C#N)C2c1cccc(Cl)c1Cl.CCO` (stereo not drawn): 13.3%. Consider `COc1ccc(C2NC(C(=O)O)Cc3c2[nH]c2ccccc32)cc1OC` (stereo not drawn), for which the “hERG current change (%, negative = inhibition) at 1uM” value worked out at 15.6%. Under `COc1ccc(/C=N/Nc2cc(N3CCOCC3)nc(C)n2)c(OC)c1` stands 3.54%.

As to `O=C(NCc1ccc(F)cc1F)c1cc(COc2c(F)cccc2F)on1`, the “hERG current change (%, negative = inhibition) at 1uM” value turned out to be 1.42%.

As to `CCOC(=O)C1CN(S(=O)(=O)c2ccc(OC)cc2)c2cc(CC(=O)OC)ccc2O1` (stereo not drawn), the “hERG current change (%, negative = inhibition) at 1uM” value stood at 4.4%. Next, `CCOC(=O)C(/C(C)=N/NC(=O)C1CC1c1ccccc1)C(C)C` (stereo not drawn): 2.75%; `CCOc1cc(/C=C2/N=C(c3ccc(C(C)(C)C)cc3)OC2=O)cc(Cl)c1OS(C)(=O)=O`: 4.17%. Under `Nn1cnc2cc3ccccc3cc2c1=O` stands 17.6%; under `COc1ccccc1C(=O)NC(=O)COC(=O)c1ccc(C)o1`, 6.76%; under `O=C(Nc1ccc(F)cc1)Oc1ccc[nH]c1=O`, 8.25%. Next, `Cc1nc2ccccc2c(=O)n1NC(=O)c1cc(Br)ccc1Cl`: 2.82%. Consider `COc1ccccc1NC(=O)NNC(=O)c1cc2ccccc2cc1O`, for which the “hERG current change (%, negative = inhibition) at 1uM” value was 5.86%. Under `O=C(Cc1c(C(=O)O)[nH]c2ccccc12)Nc1ccc2c(c1)OCO2` stands 8.25%; under `Cn1c(=NC(=O)COc2ccccc2)sc2cccc(F)c21`, 4.19%.

Consider `CCCCCSc1nnc2c(n1)OC(C)N(C(C)=O)c1ccccc1-2` (stereo not drawn), for which the “hERG current change (%, negative = inhibition) at 1uM” value is reported as 2.01%.

Take `CCOC(=O)c1ccc(NC(=O)c2ccccc2C)cc1`: the “hERG current change (%, negative = inhibition) at 1uM” value was determined as 2.66%.

Turning to `CC1CN(C(=O)Nc2ccc3c(c2)OCO3)CC(C)O1` (stereo not drawn), the “hERG current change (%, negative = inhibition) at 1uM” value is recorded as 5.9%. Under `CCN(CC)S(=O)(=O)c1ccc2[nH]c(=O)[nH]c2c1` stands -18.2%.

On to `CCOc1ccc(NC(=O)C2=C(C)C(=O)OC23CCC(C)CC3)cc1` (stereo not drawn), for which the “hERG current change (%, negative = inhibition) at 1uM” value was 9.2%.

As for `CS(=O)(=O)N1CCCC(C(=O)N2CCOCC2)C1` (stereo not drawn), the “hERG current change (%, negative = inhibition) at 1uM” value amounted to 11.8%. Regarding `Cc1ccc(C)c(NC(=O)CN(C)S(=O)(=O)c2cccc3cccnc23)c1`, the “hERG current change (%, negative = inhibition) at 1uM” value is 2.6%. `O=C(CSc1nnc(-c2ccc(O)cc2)o1)Nc1ccccc1Br`: the “hERG current change (%, negative = inhibition) at 1uM” value is on record as 18.5%. Next, `CCOc1ccc(NC(=O)C2CCCN(S(C)(=O)=O)C2)cc1` (stereo not drawn): 13.5%.

As to `N#CC1=C2C=CC=CN2CC1=O`, the “hERG current change (%, negative = inhibition) at 1uM” value was 0.331%. Under `O=C(NCc1cccnc1)Nc1ccccc1F` stands 7.6%.

For `Cc1cc2c(cc(C(=O)OC(C(=O)NCC3CCCO3)C(C)C)n2C)o1` (stereo not drawn), the “hERG current change (%, negative = inhibition) at 1uM” value came out at 4.94%. Next, `COc1ccc(-c2cc(=O)oc3cc(OCC(C)=O)ccc23)cc1`: 10.4%; `CC1CN(c2ccc(C(F)(F)F)cc2[N+](=O)[O-])CCN1S(C)(=O)=O` (stereo not drawn): -29.5%; `COc1ccc(C(=O)C2CCCN(Cc3c(C)[nH]c4ccccc34)C2)c(OC)c1` (stereo not drawn): -28.6%. As to `O=C(COC(=O)CSc1ccc([N+](=O)[O-])cc1)NC1CCCCCCC1`, the “hERG current change (%, negative = inhibition) at 1uM” value was 11.5%. Under `Cc1cc(C)cc(-n2c(N)c(C(=O)Nc3c(C)n(C)n(-c4ccccc4)c3=O)c3nc4ccccc4nc32)c1` stands -4.66%.

For the compound `CS(=O)(=O)N(CC(=O)NCc1ccccc1)Cc1ccc(Cl)cc1`, the “hERG current change (%, negative = inhibition) at 1uM” value was -16.4%.

For the compound `CCN1CCN(c2ccc(Nc3ccnc4ccccc34)cc2)CC1`, the “hERG current change (%, negative = inhibition) at 1uM” value was 11.9%. Next, `O=C(NCCN1CCOCC1)c1ccc(CSCc2cccc(Cl)c2)o1`: -23%.

As for `COc1ccc(-c2nc(C3CCCCC3)no2)cc1OC`, the “hERG current change (%, negative = inhibition) at 1uM” value turned out to be 9.93%. For `COc1ccccc1P(=O)(Cc1ccccc1)c1ccccc1` (stereo not drawn), the “hERG current change (%, negative = inhibition) at 1uM” value is reported as 9.31%. Under `O=C(O)CCC(=O)Nc1cccc(C(=O)c2ccccc2)c1` stands 11.8%. For the compound `O=C(Nc1c2c(nn1-c1ccc([N+](=O)[O-])cc1)CS(=O)(=O)C2)C1CC1`, the “hERG current change (%, negative = inhibition) at 1uM” value is given as 9.67%. With `O=C(Nc1nc(-c2ccccn2)cs1)c1cc(S(=O)(=O)N2CCOCC2)ccc1F`, the “hERG current change (%, negative = inhibition) at 1uM” value is reported as 5.89%. Under `c1ccc(-c2nc(NCc3cccs3)c3ccccc3n2)cc1` stands 11%; under `Nc1c(-c2ccccc2)nc(Cl)nc1-c1ccccc1`, 13.2%; under `COc1cc(C(C2C(=O)CC(C)(C)CC2=O)C2C(=O)CC(C)(C)CC2=O)ccc1OC(C)=O`, 11.4%. Next, `O=[N+]([O-])c1ccc(NCCNS(=O)(=O)c2ccccc2)cc1`: -14.5%.

With `Cc1ccc(NC(=O)COC(=O)c2ccc3c(c2)C(=O)N(CCc2ccccc2)C3=O)c(C)c1`, the “hERG current change (%, negative = inhibition) at 1uM” value was 15.8%. As for `COc1ccc(NC(=O)Cn2cnc3sc(C)c(S(=O)(=O)N4CCN(C)CC4)c3c2=O)cc1OC`, the “hERG current change (%, negative = inhibition) at 1uM” value was found to be 15.8%. Next, `O=C(CN1CC(=O)Nc2ccccc21)NCCc1ccc(Cl)cc1Cl`: 47%; `NCc1nc(-c2ccc(Cl)cc2)no1`: 9.13%; `COc1cc2occc2c2oc(=O)ccc12`: 9.5%.

Turning to `CN(C)S(=O)(=O)c1ccc(N2CCCC2)c(C(=O)NC2CCC(O)CC2)c1` (stereo not drawn), the “hERG current change (%, negative = inhibition) at 1uM” value is recorded as 12.8%.

Regarding `COc1cccc(CNC(=O)c2ccc3c(c2)N(C)CCS3)c1OC`, the “hERG current change (%, negative = inhibition) at 1uM” value is given as 15.7%. For the compound `Cc1ccc(C(=O)OC2CCS(=O)(=O)c3sccc32)cc1` (stereo not drawn), the “hERG current change (%, negative = inhibition) at 1uM” value was found to be 9.33%.

For the compound `Cc1nn(C)c(C(=O)N/N=C/c2ccccn2)c1[N+](=O)[O-]`, the “hERG current change (%, negative = inhibition) at 1uM” value is given as 17.6%. Under `COc1ccc(C/C(O)=C(\C#N)c2nc3ccccc3[nH]2)cc1OC` stands 17.5%. Next, `O=C(CSc1ccc(-c2nc3ccccc3[nH]2)cn1)N1CCN(C(=O)c2ccco2)CC1`: -19%.

Turning to `Cc1sc2ncn(CC(=O)OC(C)C(=O)NC(C)(C)C)c(=O)c2c1C` (stereo not drawn), the “hERG current change (%, negative = inhibition) at 1uM” value turned out to be 12.9%.
